The results in this text go back to the supplement of paper PMC9334596.

The structures appear in SMILES notation. Values joined by “and” are separate entries in the source; they are usually repeats but may differ in a detail not shown here. Identical values can stand only once. Whole data set: some 5,300 compounds, median “PER2::LUC luminescence relative to vehicle control” near 0.96, cut for the highest 2% near 1.3. The list shows a part of the results.

The test system of this assay is mPer2Luc MEF. The assay can be described thus: PER2::LUC luminescence relative to vehicle control (fold of vehicle); higher = higher PER2::LUC reporter signal. The note with it: 10 µM. The method, boiled down:
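Mouse embryonic fibroblasts carrying the mPer2Luc reporter were seeded at ~3000 cells per well in 384-well plates, 48 h before compounds from commercial libraries were added at 10 μM. Cells were grown in DMEM with 10% FBS at 37 °C and 5% CO2. Luminescence was read with the ONE-Glo luciferase assay system 24 h and 30 h after treatment, followed by an alamarBlue viability assay. The value is PER2::LUC luminescence as fold of vehicle control.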

For the molecule `COc1ccc(-c2coc3cc(O)ccc3c2=O)c(O)c1O`, the “PER2::LUC luminescence” value (time after treatment 24 h) came out at 0.977 and the “PER2::LUC luminescence” value (time after treatment 30 h) is 0.904.

On to `CCCCCC(=O)Cc1cc(O)cc(O)c1C(=O)Oc1cc(CC(=O)CCCCC)c(C(=O)O)c(OC)c1`, for which the “PER2::LUC luminescence” value is 1.23 (time after treatment 24 h) and 1.25 (time after treatment 30 h).

With `O=C(O)c1ccc(-n2nc(-c3ccccc3O)nc2-c2ccccc2O)cc1`, the “PER2::LUC luminescence” value (time after treatment 24 h) is 0.931 and 0.944; the “PER2::LUC luminescence” value (time after treatment 30 h) was 0.756 and 0.741.

As to `COc1c(C)c2c(c(O)c1C/C=C(\C)CCC(=O)OCCN1CCOCC1)C(=O)OC2`, the “PER2::LUC luminescence” value worked out at 0.726 (time after treatment 24 h) and 1.07 (time after treatment 30 h).

With `CN1C(C(=O)Nc2ccccn2)=C(O)c2ccccc2S1(=O)=O`, the “PER2::LUC luminescence” value (time after treatment 24 h) is 0.849 and the “PER2::LUC luminescence” value (time after treatment 30 h) was 1.03.

As for `NCCS`, the “PER2::LUC luminescence” value was 1.16 and 1 (time after treatment 24 h); 1.18 and 1.2 (time after treatment 30 h).

For the molecule `COCCOC(=O)C1=C(C)NC(C)=C(C(=O)OC(C)C)C1c1cccc([N+](=O)[O-])c1` (centres undefined), the “PER2::LUC luminescence” value by setting is: (time after treatment 24 h) 1.13; (time after treatment 30 h) 1.17.

Regarding `O=C(NCc1cccc(O)c1)Nc1nc(-c2ccncc2)cs1`, the “PER2::LUC luminescence” value worked out at 0.573 (time after treatment 24 h) and 0.624 (time after treatment 30 h).

In the case of `COc1cc(C(=O)NC2CCN(C)CC2)ccc1Nc1ncc2c(n1)N(C1CCCC1)CC(F)(F)C(=O)N2C`, the “PER2::LUC luminescence” value (time after treatment 24 h) was 0.049 and the “PER2::LUC luminescence” value (time after treatment 30 h) was 0.053.

As to `COC(=O)CCc1ccc(OCC(O)CNC(C)C)cc1` (centres undefined), the “PER2::LUC luminescence” value reads like this: (time after treatment 24 h) 0.46; (time after treatment 30 h) 0.791.

For `CC(N)(Cc1ccc(O)cc1)C(=O)O` (racemic), the “PER2::LUC luminescence” value reads like this: (time after treatment 24 h) 0.941; (time after treatment 30 h) 1.05.

Consider `COc1ccc(CCc2nc3cc(-c4c(C)noc4C)ccc3n2C[C@H](C)N2CCOCC2)cc1Cl`, for which the “PER2::LUC luminescence” value by setting is: (time after treatment 24 h) 0.606; (time after treatment 30 h) 0.487.

In the case of `O=C(O)c1cc2cccc([N+](=O)[O-])c2[nH]1`, the “PER2::LUC luminescence” value by setting is: (time after treatment 24 h) 1.04; (time after treatment 30 h) 0.985.

As for `Nc1nc(=O)c2c([nH]1)NC[C@H](CNc1ccc(C(=O)N[C@@H](CCC(=O)O)C(=O)O)cc1)N2C=O`, the “PER2::LUC luminescence” value reads like this: (time after treatment 24 h) 0.779; (time after treatment 30 h) 0.952.

With `COc1cc(/C=C(\C#N)C(=O)c2ccc(O)c(O)c2)cc(I)c1O`, the “PER2::LUC luminescence” value (time after treatment 24 h) is 0.959 and the “PER2::LUC luminescence” value (time after treatment 30 h) came to 0.967.

Turning to `CCNC(=O)c1noc(-c2cc(C(C)C)c(O)cc2O)c1-c1ccc(CN2CCOCC2)cc1`, the “PER2::LUC luminescence” value (time after treatment 24 h) amounted to 0.047 and the “PER2::LUC luminescence” value (time after treatment 30 h) was determined as 0.021.

With `COc1cccc(N(C)C(=S)Oc2ccc3c(c2)CCCC3)n1`, the “PER2::LUC luminescence” value runs as follows: (time after treatment 24 h) 0.614; (time after treatment 30 h) 0.655.

On to `CNCc1ccc(-c2[nH]c3cc(F)cc4c3c2CCNC4=O)cc1`, for which the “PER2::LUC luminescence” value reads like this: (time after treatment 24 h) 1.03; (time after treatment 30 h) 1.03.

Consider `NCCc1cc[nH]n1`, for which the “PER2::LUC luminescence” value amounted to 1.05 (time after treatment 24 h) and 1.09 (time after treatment 30 h).

As to `CCCNC(C)C(=O)Nc1c(C)csc1C(=O)OC` (centres undefined), the “PER2::LUC luminescence” value runs as follows: (time after treatment 24 h) 1; (time after treatment 30 h) 0.951.

For the molecule `O=c1cc(-c2ccc(O)cc2)oc2cc(O[C@@H]3O[C@H](CO)[C@@H](O)[C@H](O)[C@H]3O)cc(O)c12`, the “PER2::LUC luminescence” value runs as follows: (time after treatment 24 h) 1.22; (time after treatment 30 h) 1.43.

As to `Cc1c(NC(C)C)c(=O)n(-c2ccccc2)n1C`, the “PER2::LUC luminescence” value came to 0.851 (time after treatment 24 h) and 0.837 (time after treatment 30 h).

For `Cc1cnc(-c2cnc(NCCNc3ccc(C#N)cn3)nc2-c2ccc(Cl)cc2Cl)[nH]1`, the “PER2::LUC luminescence” value runs as follows: (time after treatment 24 h) 1.56; (time after treatment 30 h) 1.06.

On to `N[C@@]1(C(=O)O)CN[C@@H](C(=O)O)C1`, for which the “PER2::LUC luminescence” value runs as follows: (time after treatment 24 h) 0.997; (time after treatment 30 h) 0.949.

Regarding `CN(C)CCN(Cc1ccc(Cl)cc1)c1ccccn1`, the “PER2::LUC luminescence” value came out at 0.304 (time after treatment 24 h) and 0.599 (time after treatment 30 h).

For the molecule `C=C1/C(=C\C=C2/CCC[C@]3(C)[C@@H]([C@H](C)CC[C@@H](O)C(C)(C)O)CC[C@@H]23)C[C@@H](O)C[C@@H]1O`, the “PER2::LUC luminescence” value is, setting by setting: (time after treatment 24 h) 0.999; (time after treatment 30 h) 0.835.

In the case of `NS(=O)(=O)Cc1noc2ccccc12`, the “PER2::LUC luminescence” value is, setting by setting: (time after treatment 24 h) 0.993; (time after treatment 30 h) 0.829.

In the case of `COc1ccc2c(c1)C(=O)N(CCc1ccc(S(=O)(=O)NC(=O)NC3CCCCC3)cc1)C(=O)C2(C)C`, the “PER2::LUC luminescence” value is, setting by setting: (time after treatment 24 h) 0.931; (time after treatment 30 h) 1.05.

As to `C=CCc1ccc(O)c(-c2cc(CC=C)ccc2O)c1`, the “PER2::LUC luminescence” value by setting is: (time after treatment 24 h) 1.07; (time after treatment 30 h) 0.949.

For `CCCCCCCCCCOc1cc2c(O)c(C(=O)OCC)cnc2cc1OCC`, the “PER2::LUC luminescence” value (time after treatment 24 h) was found to be 0.758 and the “PER2::LUC luminescence” value (time after treatment 30 h) is 1.1.

As to `COC(=O)[C@@H](N)CS`, the “PER2::LUC luminescence” value (time after treatment 24 h) came out at 0.59 and the “PER2::LUC luminescence” value (time after treatment 30 h) was 0.849.

Consider `Cc1cn([C@H]2C[C@H](N=[N+]=[N-])[C@@H](CO)O2)c(=O)[nH]c1=O`, for which the “PER2::LUC luminescence” value was 1 and 0.851 (time after treatment 24 h); 0.854 and 0.886 (time after treatment 30 h).

With `COc1ccc([C@@H]2Sc3ccccc3N(CCN(C)C)C(=O)[C@@H]2OC(C)=O)cc1`, the “PER2::LUC luminescence” value (time after treatment 24 h) was 0.861 and the “PER2::LUC luminescence” value (time after treatment 30 h) is 0.812.

Regarding `C[C@H](NC[C@H](O)CP(=O)(O)Cc1ccccc1)c1ccc(Cl)c(Cl)c1`, the “PER2::LUC luminescence” value (time after treatment 24 h) was 1.09 and the “PER2::LUC luminescence” value (time after treatment 30 h) stood at 1.

On to `CC(=O)c1cc([N+](=O)[O-])c(Sc2ccc(F)cc2F)s1`, for which the “PER2::LUC luminescence” value (time after treatment 24 h) came to 0.964 and the “PER2::LUC luminescence” value (time after treatment 30 h) stood at 0.921.

For the molecule `NCCC(O)(P(=O)(O)O)P(=O)(O)O`, the “PER2::LUC luminescence” value (time after treatment 24 h) turned out to be 1.08 and the “PER2::LUC luminescence” value (time after treatment 30 h) came to 1.05.

Turning to `N[C@@H](Cc1c[nH]cn1)C(=O)O`, the “PER2::LUC luminescence” value (time after treatment 24 h) is 1.11 and the “PER2::LUC luminescence” value (time after treatment 30 h) was 1.03.

Turning to `Cc1ccc2nc(NCCN)c3ncc(C)n3c2c1`, the “PER2::LUC luminescence” value is, setting by setting: (time after treatment 24 h) 0.083; (time after treatment 30 h) 0.227.

For `Cc1c(NC(=O)OC[C@@H]2COCCN2)cn2ncnc(Nc3ccc4c(cnn4Cc4cccc(F)c4)c3)c12`, the “PER2::LUC luminescence” value was found to be 0.864 (time after treatment 24 h) and 0.784 (time after treatment 30 h).

`CN1C(=O)C[C@@H](C(=O)N[C@@H](Cc2c[nH]cn2)C(=O)N2CCC[C@H]2C(N)=O)NC1=O`: the “PER2::LUC luminescence” value came out at 1.13 (time after treatment 24 h) and 0.994 (time after treatment 30 h).

As for `CC(C[N+](C)(C)C)OC(N)=O` (centres undefined), the “PER2::LUC luminescence” value reads like this: (time after treatment 24 h) 1.02; (time after treatment 30 h) 1.04.

`Nn1nnc2ccccc21`: the “PER2::LUC luminescence” value by setting is: (time after treatment 24 h) 1.04; (time after treatment 30 h) 1.06.

Consider `CN(C)CCCC1(c2ccc(F)cc2)OCc2cc(C#N)ccc21` (centres undefined), for which the “PER2::LUC luminescence” value (time after treatment 24 h) was 0.733 and the “PER2::LUC luminescence” value (time after treatment 30 h) was found to be 0.753.

As to `CN(C)[C@@H](CCOc1cccc2ccccc12)c1ccccc1`, the “PER2::LUC luminescence” value (time after treatment 24 h) was 0.775 and the “PER2::LUC luminescence” value (time after treatment 30 h) was 0.788.

For `COC[C@@H](c1ccc(C(F)(F)F)cc1)N1CCN(C2(C)CCN(C(=O)c3c(C)ncnc3C)CC2)C[C@@H]1C`, the “PER2::LUC luminescence” value by setting is: (time after treatment 24 h) 1.02; (time after treatment 30 h) 0.868.

As to `Cc1onc(-c2ccccc2)c1C(=O)N[C@@H]1C(=O)N2[C@@H]1SC(C)(C)[C@@H]2C(=O)O`, the “PER2::LUC luminescence” value stood at 0.917 (time after treatment 24 h) and 1.16 (time after treatment 30 h).

As for `CC(C)c1noc(N2CCC(COc3ccc(-c4ccc(S(C)(=O)=O)cc4)nc3)CC2)n1`, the “PER2::LUC luminescence” value (time after treatment 24 h) was 1.05 and the “PER2::LUC luminescence” value (time after treatment 30 h) was 1.12.

Turning to `O=CN1CC/C(=C/c2ccc3c(c2)OCO3)C1=O`, the “PER2::LUC luminescence” value runs as follows: (time after treatment 24 h) 1.18; (time after treatment 30 h) 1.26.

As to `COc1ccccc1CNCCCCCCNCCCCCCCCNCCCCCCNCc1ccccc1OC`, the “PER2::LUC luminescence” value (time after treatment 24 h) came to 0.757 and the “PER2::LUC luminescence” value (time after treatment 30 h) was found to be 0.981.

In the case of `OCCOCCN1CCN(C(c2ccccc2)c2ccccc2)CC1`, the “PER2::LUC luminescence” value was determined as 0.939 (time after treatment 24 h) and 0.9 (time after treatment 30 h).

With `CC[C@H](Nc1ncnc2[nH]cnc12)c1nc2cccc(F)c2c(=O)n1-c1ccccc1`, the “PER2::LUC luminescence” value is 0.89 (time after treatment 24 h) and 0.786 (time after treatment 30 h).

Take `CCC(=O)NCC[C@@H]1CCc2ccc3c(c21)CCO3`: the “PER2::LUC luminescence” value is 0.981 (time after treatment 24 h) and 0.994 (time after treatment 30 h).

As to `COC1=CC(=O)C[C@@H](C)[C@]12Oc1c(Cl)c(OC)cc(OC)c1C2=O`, the “PER2::LUC luminescence” value by setting is: (time after treatment 24 h) 1.05 and 0.887; (time after treatment 30 h) 0.893 and 0.895.

Consider `CC[C@H](/C=C/[C@@H](C)[C@H]1CC[C@H]2[C@@H]3CCC4=CC(=O)CC[C@]4(C)[C@H]3CC[C@]12C)C(C)C`, for which the “PER2::LUC luminescence” value is, setting by setting: (time after treatment 24 h) 0.932; (time after treatment 30 h) 0.934.

Consider `CC(C)(C)c1cc(/C=C(\C#N)C(N)=S)cc(C(C)(C)C)c1O`, for which the “PER2::LUC luminescence” value runs as follows: (time after treatment 24 h) 0.935; (time after treatment 30 h) 0.893.

Consider `COc1c2c(cc3occ(-c4ccc5c(c4)OCO5)c(=O)c13)OC(C)(C)C=C2`, for which the “PER2::LUC luminescence” value (time after treatment 24 h) was 0.833 and the “PER2::LUC luminescence” value (time after treatment 30 h) was 0.876.

On to `COc1ccc(-c2coc3cc(O)cc(O)c3c2=O)cc1`, for which the “PER2::LUC luminescence” value was found to be 1.83 (time after treatment 24 h) and 1.97 (time after treatment 30 h).
